According to PubChem BioAssay AID1030 (National Center for Advancing Translational Sciences (NCATS), 2008):
Out of some 220,000 compounds screened, about 16,000 (7.3%) were called active. Inconclusive means that the source gave no clear call. Such entries were picked first, then a sample of the others. Calls come from the whole dose curve; as a rule, active = well fitted inhibition curve with a large enough effect (not every such curve was filed as active); inconclusive = small, poorly fitted or top-dose-only effect, or another doubt; inactive = no such curve, though single readings can be large or run the other way. Potencies of inconclusive entries are left out as doubtful fits.

target: Aldehyde dehydrogenase 1A1 (Homo sapiens) (UniProt P00352); assay: qHTS Assay for Inhibitors of Aldehyde Dehydrogenase 1 (ALDH1A1); conditions: Purified ALDH1A1, NADH fluorescence, propionaldehyde substrate; series mostly up to 75.3 µM; activity, negative = inhibition: at the top concentration;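 for activity, negative = inhibition: plate controls were no enzyme wells and a reference inhibitor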
Potency is the fitted concentration of half-maximal effect; tags give direction and shape of the fitted curve.

UniProt P00352, sequence (P00352 whole entry, looked up): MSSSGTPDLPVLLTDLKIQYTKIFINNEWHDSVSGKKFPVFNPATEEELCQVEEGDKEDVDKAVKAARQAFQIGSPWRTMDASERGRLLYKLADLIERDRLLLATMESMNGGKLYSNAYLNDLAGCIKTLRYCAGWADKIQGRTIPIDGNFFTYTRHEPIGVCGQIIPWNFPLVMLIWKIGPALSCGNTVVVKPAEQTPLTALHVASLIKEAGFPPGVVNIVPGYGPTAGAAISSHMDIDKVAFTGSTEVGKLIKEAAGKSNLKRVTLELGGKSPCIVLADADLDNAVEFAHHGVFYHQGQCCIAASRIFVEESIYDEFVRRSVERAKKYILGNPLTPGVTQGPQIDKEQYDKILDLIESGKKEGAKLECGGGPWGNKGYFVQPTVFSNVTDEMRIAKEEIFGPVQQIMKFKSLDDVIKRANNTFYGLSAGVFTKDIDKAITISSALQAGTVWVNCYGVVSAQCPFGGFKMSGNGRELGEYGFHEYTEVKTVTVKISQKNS

SMILES | Potency | activity, negative = inhibition
C[C@H](NC(=O)c1nc[nH]c1C(=O)NCc1ccccc1)C(=O)OC(C)(C)C | inconclusive [inhibitor, single point] | 
COc1ccc(-c2[nH]ncc2CNCCn2cccn2)c(F)c1 |  | inactive: 1.41%
FC(F)(F)c1ccc(Sc2n[nH]c(C(F)(F)F)n2)nc1 |  | inactive: -6.54%
O=C(c1ccncc1)N1CCC[C@@]2(CCN(c3ncccn3)C2)C1 | inconclusive [inhibitor, single point] | 
COc1ccccc1C(=O)Nc1ccccc1N1CCN(S(C)(=O)=O)CC1 | inconclusive [inhibitor, partial curve] | 
O=C(NCc1nnc(SCC(=O)N2CCCc3ccccc32)o1)c1ccco1 | inconclusive [inhibitor, single point] | 
CCCCCC(=O)NNC(=S)NC(=O)c1cccc([N+](=O)[O-])c1 | active: 1.26 µM | 
O=C(c1ccco1)N1CCC2(CC1)CCN(c1ncccn1)CC2 | active: 25.1 µM | 
COc1ccc(C(C#N)c2ccc(=O)[nH]n2)cc1 (stereo unspecified) | inconclusive [inhibitor, partial curve] | 
COc1cccc(C(=O)Nc2ccccc2N2CCOCC2)c1 | inconclusive [inhibitor, single point] | 
CCN1C(=O)C(CC(=O)Nc2ccc(OC)cc2)N(CCCN2CCN(c3ccc(OC)cc3)CC2)C1=S (stereo unspecified) | inconclusive [inhibitor, single point] | 
Cn1c(=O)[nH]c(=O)c2c1nc(Br)n2CC(O)COc1ccc(Cl)cc1 (stereo unspecified) | inconclusive [inhibitor, single point] | 
CC(=O)CSc1nnc(-c2ccncc2)n1C |  | inactive: -6.81%
COC(=O)C1C(=O)C2=C(CC1C)NC(C)=C(C(=O)OC1CCCC1)C2c1ccc(N(C)C)cc1 (stereo unspecified) | inconclusive [inhibitor, partial curve] | 
C=CCn1c(SCC(=O)Nc2ccc3c(c2)OCCO3)nnc1-c1ccco1 | inconclusive [inhibitor, single point] | 
O=C(Nc1ccc2c(c1)OCO2)c1noc2c1CCCCC2 | inconclusive [inhibitor, single point] | 
CC(=O)Nc1cccc(-c2nnc3n2CC(C)S3)c1 (stereo unspecified) |  | inactive: 6.89%
O=C(CSC1=NC2(CCCCCC2)N=C1c1ccccc1)Nc1ccc2c(c1)OCCO2 | active: 22.4 µM | 
Cc1ccc(C2=NC(C)(C)NC2=O)cc1 | inconclusive [inhibitor, single point] | 
Cc1ccc(N2C(=O)C3ON(c4ccccc4)C(c4ccncc4)C3C2=O)cc1 (stereo unspecified) | active: 2.51 µM | 
CN(C(=O)CSc1ncnc2sc(-c3ccccc3)cc12)C1CCS(=O)(=O)C1 (stereo unspecified) | inconclusive [inhibitor, single point] | 
CCN(CC)Cc1c(O)ccc2c(-c3ccccc3)cc(=O)oc12 | inconclusive [inhibitor, single point] | 
O=C(Nc1ccccc1)c1ccc(-c2ccccc2C(F)(F)F)o1 | inconclusive [inhibitor, single point] | 

SMILES | Potency | activity, negative = inhibition
Cc1ccc(NC(=O)CCl)cc1S(=O)(=O)N1CCCCCC1 | active: 1.5 µM | 
CCC(C)Nc1c2c(nc3c(-c4ccccc4)c(C)nn13)CCC2 (stereo unspecified) | inconclusive [inhibitor, single point] | 
CC(C)COC(=O)c1cccc2c1-c1ccccc1/C2=N\O |  | inactive: 8.22%
CCOC(=O)N/N=C/c1cc(C)n(-c2ccccc2)c1C | inconclusive [inhibitor, single point] | 
COC(=O)Cc1csc(NC(=O)CSc2nnc3ccccn23)n1 |  | inactive: 2.61%
O=C(Nc1ccc(Br)cc1)c1cccc(S(=O)(=O)Nc2cnc3ccccc3c2)c1 | inconclusive [inhibitor, single point] | 
Cc1cc(=O)oc2cc(OCC3CC(c4ccc(N(C)C)cc4)=NO3)ccc12 (stereo unspecified) | inconclusive [inhibitor, partial curve] | 
O=[n+]1c2c(n([O-])c3ccccc31)CCCC2 |  | inactive: -2.58%
CC(Oc1ccccc1)C(=O)N1CCN=C1SCc1ccccc1 (stereo unspecified) |  | inactive: -9.8%
Cc1c(NC(=O)CSc2ccccn2)c(=O)n(-c2ccccc2)n1C | inconclusive [inhibitor, single point] | 
Cc1cc2oc(=O)cc(-c3ccccc3)c2c(C)c1-c1sccc1C=O | inconclusive [inhibitor, partial curve] | 
CCOc1ccc(NC(=O)C2CC(=O)N=C(N)S2)cc1 (stereo unspecified) | inconclusive [inhibitor, single point] | 
c1ccc(-n2ncc3c(N4CCN(c5ccccn5)CC4)nc(N4CCOCC4)nc32)cc1 | inconclusive [inhibitor, single point] | 
Cc1ccc(S(=O)(=O)N2CCN(S(=O)(=O)N3CCCCCC3)CC2)cc1 |  | inactive: 12.7%
Clc1nssc1=Nc1ccc(Br)cc1 | active: 1.78 µM | 
O=C1CC(c2ccc(S(=O)(=O)NCCOc3ccccc3)cc2)CN1 (stereo unspecified) | inconclusive [inhibitor, single point] | 
COc1cc2cc(CN(Cc3nnnn3Cc3ccccc3)CC3CCCO3)c(=O)[nH]c2cc1OC (stereo unspecified) | inconclusive [inhibitor, partial curve] | 
COc1cccc(-n2c(SCC(=O)NC3CCCCC3)nc3n[nH]c(C)c3c2=N)c1 | active: 20 µM | 
COC(=O)Nc1sc2c(c1C(N)=O)CCCCCC2 | active: 8.91 µM | 
Cn1c(SCC(=O)NNC(=O)c2ccc(Cl)cc2)nnc1-c1cccnc1 |  | inactive: 2.22%
Cc1ccccc1Cn1cc(NC(=O)CCCn2nc([N+](=O)[O-])cc2C)cn1 | inconclusive [inhibitor, single point] | 
O=C(CN(Cc1cccs1)C(=O)CNS(=O)(=O)c1ccc(Cl)cc1)NCc1ccco1 | inconclusive [inhibitor, single point] | 
CCOC(=O)C1=C(C)NC(SCC(=O)O)=C(C#N)C1c1ccco1 (stereo unspecified) | inconclusive [inhibitor, single point] | 
